According to paper PMC9668655 (Computational and Structural Biotechnology Journal, 2022):

Target: MOAβT (β-trefoil domain of MOA) (Marasmius oreades, UniProt Q8X123)
Conditions: 20 mM Tris/HCl pH 7.5, 100 mM NaCl, 25 °C; one-site model, N fixed at 2

OC[C@H]1O[C@H](O[C@H]2[C@@H](O)[C@@H](CO)OC(O)[C@@H]2O)[C@H](O)[C@@H](O)[C@H]1O (stereo partly shown) [Galα1-3Gal]
Kd: 150 µM
